The antibiotic and cytotoxicity screens of Wong et al. (2023)
The other results are listed elsewhere or left out.

How the values were obtained:
HSkMC = human skeletal muscle cells; assay: cytotoxicity call (relative viability < 0.9); conditions: 10 µM
HepG2 = assay: cytotoxicity call (relative viability < 0.9); conditions: 10 µM
S. aureus RN4220 = assay: growth inhibition call (relative growth <= 0.2); conditions: 50 µM

Row | Structure (SMILES) | cytotoxicity call (HSkMC) | cytotoxicity call (HepG2) | growth inhibition call (S. aureus RN4220)
1 | CCC[C@@]1(CCc2ccccc2)CC(=O)[C@@H]([C@H](CC)c2cccc(NS(=O)(=O)c3ccc(C(F)(F)F)cn3)c2)C(=O)O1 | inactive | inactive | inactive
2 | C[C@@H]1CN([C@@H](C)CO)C(=O)c2cccc(NC(=O)CCCCCC(=O)Nc3ccccc3N)c2O[C@H]1CN(C)S(=O)(=O)c1cn(C)cn1 | inactive | inactive | inactive
3 | C[C@@H](N)c1cnn(-c2ccc(F)cc2)c1 | inactive | inactive | inactive
4 | COc1ccc(S(=O)(=O)Nc2ccc3c(c2)C(=O)N([C@@H](C)CO)C[C@H](C)[C@@H](CN(C)C(=O)NC2CCCCC2)OCCCC[C@H](C)O3)cc1 | inactive | inactive | inactive
5 | CC(C)NC(=O)N(C)C[C@@H]1Oc2cc(C#Cc3ccc(F)cc3)ccc2S(=O)(=O)N([C@@H](C)CO)C[C@H]1C | inactive | inactive | inactive
6 | C[C@H]1CN([C@@H](C)CO)C(=O)Cc2cc(NC(=O)CCCN(C)C)ccc2O[C@H]1CN(C)S(=O)(=O)c1ccc(Cl)cc1 | inactive | inactive | inactive
7 | C[C@@H]1CN([C@H](C)CO)C(=O)c2cc(NC(=O)Nc3ccc(C(F)(F)F)cc3)ccc2O[C@@H](C)CCCCO[C@@H]1CN(C)C(=O)Nc1cccc2ccccc12 | inactive | inactive | inactive
8 | C[C@@H]1CN([C@H](C)CO)C(=O)c2cc(C#Cc3cccnc3)cnc2O[C@H]1CN(C)Cc1ccc(F)cc1 | inactive | inactive | inactive
9 | C[C@@H]1CN([C@H](C)CO)C(=O)c2cc(NC(=O)CCN3CCOCC3)ccc2O[C@H]1CN(C)Cc1ccc2c(c1)OCO2 | inactive | inactive | inactive
10 | C[C@H]1CN([C@@H](C)CO)C(=O)c2cccc(NS(=O)(=O)c3cccs3)c2O[C@@H]1CN(C)S(=O)(=O)c1cn(C)cn1 | inactive | inactive | inactive
11 | COc1ccc(S(=O)(=O)N(C)C[C@H]2Oc3c(NS(=O)(=O)c4ccc(F)cc4)cccc3C(=O)N([C@H](C)CO)C[C@H]2C)cc1 | inactive | inactive | inactive
12 | C[C@@H]1CN([C@@H](C)CO)C(=O)c2cc(NC(=O)Cc3ccccc3)ccc2O[C@@H]1CN(C)S(=O)(=O)c1ccccc1 | inactive | inactive | inactive
13 | CC[C@@H](C)N1C(=O)CC[C@H]1C(=O)O | inactive | inactive | inactive
14 | C[C@@H]1CCCCO[C@@H](CN(C)S(=O)(=O)c2ccc(Cl)cc2)[C@@H](C)CN([C@H](C)CO)C(=O)c2cc(NC(=O)Nc3ccc(F)cc3)ccc2O1 | inactive | inactive | inactive
15 | C[C@H](CO)N1C[C@H](C)[C@@H](CN(C)C(=O)Nc2ccccc2)Oc2cc(C#CC3(O)CCCC3)ccc2S1(=O)=O | inactive | inactive | inactive
16 | CN(C)C(=O)C[C@@H]1CC[C@H](NC(=O)C2CCOCC2)[C@@H](CO)O1 | inactive | inactive | inactive
17 | O=C(O)[C@H]1CCCC[C@H]1C(=O)N1CCc2ccccc2[C@H]1CNS(=O)(=O)c1ccc([N+](=O)[O-])cc1 | inactive | inactive | inactive
18 | COc1ccc(S(=O)(=O)N(C)C[C@H]2Oc3ccc(NS(=O)(=O)c4c(C)noc4C)cc3C(=O)N([C@@H](C)CO)C[C@@H]2C)cc1 | inactive | inactive | inactive
19 | C[C@@H]1CN([C@@H](C)CO)C(=O)c2cc(NS(=O)(=O)c3ccc(F)cc3)ccc2O[C@@H](C)CCCCO[C@@H]1CN(C)Cc1ccc(C(=O)O)cc1 | inactive | inactive | inactive
20 | C[C@@H]1CN([C@@H](C)CO)C(=O)c2cccc(NC(=O)Nc3ccccc3)c2O[C@H]1CN(C)S(C)(=O)=O | inactive | inactive | inactive
21 | COc1ccc(S(=O)(=O)Nc2ccc3c(c2)C(=O)N([C@@H](C)CO)C[C@@H](C)[C@@H](CN(C)S(=O)(=O)c2ccc(F)cc2)O3)cc1 | inactive | inactive | inactive
22 | C[C@@H]1CCCCO[C@@H](CN(C)C(=O)Nc2ccc(C(F)(F)F)cc2)[C@H](C)CN([C@H](C)CO)C(=O)c2cc(NC(=O)Nc3cccc4ccccc34)ccc2O1 | inactive | inactive | inactive
23 | CCCCCCCCCCC/C=C\C/C=C\CCCC(=O)O | inactive | inactive | inactive
24 | C[C@H](O)C#Cc1cnc2c(c1)C(=O)N([C@@H](C)CO)C[C@H](C)[C@@H](CN(C)Cc1cncnc1)O2 | inactive | inactive | inactive
25 | CC(C)NC(=O)N(C)C[C@H]1Oc2ccc(NS(=O)(=O)c3cn(C)cn3)cc2C(=O)N([C@H](C)CO)C[C@@H]1C | inactive | inactive | inactive
26 | Nc1ccn([C@@H]2CS[C@H](CO)O2)c(=O)n1 | inactive | inactive | inactive
27 | C[C@H]1CN([C@@H](C)CO)C(=O)c2cc(NC(=O)Cn3cnnn3)ccc2O[C@H]1CN(C)Cc1ccc(Oc2ccccc2)cc1 | inactive | inactive | inactive

Row | Structure (SMILES) | cytotoxicity call (HSkMC) | cytotoxicity call (HepG2) | growth inhibition call (S. aureus RN4220)
28 | COC(=O)C=CC(=O)OC | inactive | active | inactive
29 | C[C@@H]1CCCCO[C@@H](CN(C)CC2CCCCC2)[C@@H](C)CN([C@@H](C)CO)C(=O)c2cc(NC(=O)CCCN(C)C)ccc2O1 | inactive | inactive | inactive
30 | C[C@@H]1CN([C@@H](C)CO)C(=O)c2cc(NC(=O)c3ccncc3)ccc2O[C@H]1CN(C)Cc1ccc2c(c1)OCO2 | inactive | inactive | inactive
31 | CO[C@H]1CN(S(=O)(=O)c2cn(C)cn2)[C@H]2COC[C@@H]12 | inactive | inactive | inactive
32 | C[C@@H]1CCCCO[C@@H](CN(C)Cc2ccc(Cl)c(Cl)c2)[C@@H](C)CN([C@@H](C)CO)C(=O)c2cc(NS(=O)(=O)c3ccc(F)cc3)ccc2O1 | inactive | inactive | inactive
33 | C[C@H]1CCCCO[C@H](CN(C)Cc2ccccc2)[C@@H](C)CN([C@@H](C)CO)C(=O)c2cc(NS(=O)(=O)c3cccs3)ccc2O1 | inactive | inactive | inactive
34 | COc1ccc(CN(C)C[C@H]2OCCCC[C@H](C)Oc3ccc(NS(=O)(=O)c4cccs4)cc3C(=O)N([C@@H](C)CO)C[C@@H]2C)cc1 | inactive | inactive | inactive
35 | COc1ccc(NC(=O)Nc2ccc3c(c2)CC(=O)N([C@@H](C)CO)C[C@H](C)[C@H](CN(C)Cc2ccc(Cl)c(Cl)c2)O3)cc1 | active | active | inactive
36 | C[C@@H]1CCCCO[C@H](CN(C)C(=O)CCC(F)(F)F)[C@H](C)CN([C@H](C)CO)C(=O)c2cc(NC(=O)NC3CCCCC3)ccc2O1 | inactive | inactive | inactive
37 | CN1C[C@@H](CN)CC1=O | inactive | inactive | inactive
38 | CO[C@H]1C[C@@H]2CC[C@@H](C)[C@@](O)(O2)C(=O)C(=O)N2CCCC[C@@H]2C(=O)O[C@H]([C@H](C)C[C@@H]2CC[C@@H](O)[C@H](OC)C2)CC(=O)[C@H](C)/C=C(\C)[C@@H](O)[C@@H](OC)C(=O)[C@H](C)C[C@H](C)/C=C/C=C/C=C/1C | inactive | inactive | inactive
39 | C[C@H](CO)N1C[C@H](C)[C@H](CN(C)Cc2ccc(C(=O)O)cc2)Oc2c(NC(=O)c3ccc(-c4nccs4)cc3)cccc2C1=O | inactive | inactive | inactive
40 | C[C@@H]1CN([C@H](C)CO)C(=O)c2cccc(NC(=O)Nc3ccc(C(F)(F)F)cc3)c2O[C@H]1CN(C)Cc1ccncc1 | inactive | inactive | inactive
41 | CC(C)NC(=O)N(C)C[C@H]1Oc2c(NS(=O)(=O)c3cccs3)cccc2C(=O)N([C@@H](C)CO)C[C@@H]1C | inactive | inactive | inactive
42 | C[C@@H]1CN([C@@H](C)CO)C(=O)c2c(c3ccccc3n2C)-c2ccccc2CO[C@H]1CN(C)C(=O)Nc1cccc(Cl)c1Cl | inactive | inactive | inactive
43 | Cc1noc(C)c1NC(=O)Nc1ccc2c(c1)C(=O)N([C@@H](C)CO)C[C@H](C)[C@H](CN(C)Cc1ccc(Cl)c(Cl)c1)OCCCC[C@@H](C)O2 | inactive | inactive | inactive
44 | COc1ccc(S(=O)(=O)N(C)C[C@@H]2Oc3c(NC(=O)C4CC4)cccc3C(=O)N([C@@H](C)CO)C[C@@H]2C)cc1 | inactive | inactive | inactive
45 | Cc1ccc(S(=O)(=O)N(C)C[C@@H]2Oc3ncc(-c4ccncc4)cc3C(=O)N([C@@H](C)CO)C[C@@H]2C)cc1 | inactive | inactive | inactive
46 | CCC1C=C2C(=O)OC(=O)C2CC2=C(C(=O)OC2=O)C(O)C1CC (centres undefined) | inactive | inactive | inactive
47 | COc1ccc(S(=O)(=O)N(C)C[C@H]2Oc3ccc(NS(=O)(=O)c4ccc(F)cc4)cc3C(=O)N([C@H](C)CO)C[C@H]2C)cc1 | inactive | inactive | inactive
48 | C[C@@H]1CCCCO[C@@H](CN(C)C(=O)Nc2ccc(C(F)(F)F)cc2)[C@H](C)CN([C@@H](C)CO)C(=O)c2cc(NC(=O)Nc3ccc(C(F)(F)F)cc3)ccc2O1 | inactive | inactive | inactive
49 | C[C@@H]1CN([C@H](C)CO)C(=O)c2cc(NC(=O)CCCN(C)C)ccc2O[C@H]1CN(C)S(=O)(=O)c1ccccc1 | inactive | inactive | inactive
50 | C[C@H]1CN([C@@H](C)CO)C(=O)Cc2cc(NC(=O)c3ccncc3)ccc2O[C@@H]1CN(C)S(C)(=O)=O | inactive | inactive | inactive
51 | O=C1[C@@H]2[C@H](O)CS[C@@H]2C(=O)N1c1ccccc1 | inactive | inactive | inactive
52 | C[C@@H]1CN([C@H](C)CO)C(=O)c2cc(NC(=O)Nc3ccc(F)cc3)ccc2O[C@@H]1CN(C)Cc1ccc(C(=O)Nc2ccccc2N)cc1 | inactive | inactive | inactive
53 | Cc1noc(C)c1S(=O)(=O)N(C)C[C@@H]1Oc2ccc(NC(=O)C3CC3)cc2CC(=O)N([C@@H](C)CO)C[C@H]1C | inactive | inactive | inactive
